# Test results: the supplement of paper PMC8728848
# Some of the results follow.
# B1: GS7807P-bth-537-23-537 (Bacteroides thetaiotaomicron) (protein)
# chain: NYENINSNPYEAPDLSADGYALGSAMNNLAGCVVSPDVNTAQFTDCLLGGPLGGYFADSNAGFTETISNFNPKDDWSRVFLKSDKIIPTLYSNLTQVKLVSQNTNDPVPYAIAQVIKVAAMHRVTDAFGPIPYSQIGANGEIATPYDSQEVTYNTFFDELNAAIATLNENSNEQLVPTADYIYKGDVKKWIRFANSLKLRLAIRIAYANPVKAQQMAEEAVNPANGGVIESNADNATWNYFETSQNPIYVATRYNQVQTSDHGGVPCLTGGDTHAAADIICYMNGYKDNRREKFFTKSEWAGQDYVGMRRGIVIPELKTTGHKYSGVNIAPTSPLYWMNAAEVAFLRAEGQAVFNFSMGGTAESFYNQGIRLSFEQWGADGVEDYLKDDVNKPTAYTDPAGTNTYQNALSNITIKWNDSADKEEKQERIIVQKWIANWQLGNEAWADFRRTGYPKLIPVKENKSGGVVDSEKGARRMPYPLDEFVSNKANVEYAIANYLHGADNMATDVWWASKK
# How the values were obtained:
# Experiment in all cases: glycan array binding signal (z-score within array); higher = stronger binding
# Details in all cases: glycan notation: IUPAC condensed, linker removed
# [1] = biological target: GlcNAc(b1-3)Gal(b1-4)GlcNAc(b1-3)Gal(b1-4)GlcNAc(b1-3)GalNAc
# Summary of the method: (§1)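 Glycan array binding is given as a within-array Z-score, which can be read as non-binding when negative. The arrays, 3228 of them, came from the Consortium for Functional Glycomics database and were retained only where the protein sequence was available. Z-scores were averaged across arrays of the same protein sequence at different concentrations or buffers and across linkers.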
# [2] = biological target: GlcNAc(b1-3)Gal(b1-4)GlcNAc(b1-3)GalNAc
# Summary of the method: as §1
# [3] = biological target: GlcNAc(b1-3)Gal(b1-4)GlcNAc(b1-3)[GlcNAc(b1-3)Gal(b1-4)GlcNAc(b1-3)]GalNAc
# Summary of the method: as §1
# [4] = biological target: GlcNAc(b1-3)Gal(b1-4)GlcNAc(b1-6)[Gal(b1-3)]GalNAc
# Summary of the method: as §1
# [5] = biological target: GlcNAc(b1-3)Gal(b1-4)GlcNAc(b1-6)[GlcNAc(b1-3)Gal(b1-3)]GalNAc
# Summary of the method: as §1
# [6] = biological target: GlcNAc(b1-3)Gal(b1-4)GlcNAc(b1-6)[GlcNAc(b1-3)]Gal(b1-4)GlcNAc
# Summary of the method: as §1
# GlcNAc(b1-3)GalNAc = biological target: GlcNAc(b1-3)GalNAc
# Summary of the method: as §1
# GlcNAc(b1-3)Man = biological target: GlcNAc(b1-3)Man
# Summary of the method: as §1
# [7] = biological target: GlcNAc(b1-3)[GlcNAc(b1-4)][GlcNAc(b1-6)]GlcNAc
# Summary of the method: as §1
# [8] = biological target: GlcNAc(b1-3)[GlcNAc(b1-6)]Gal(b1-4)GlcNAc
# Summary of the method: as §1
# [9] = biological target: GlcNAc(b1-3)[GlcNAc(b1-6)]GalNAc
# Summary of the method: as §1
# [10] = biological target: GlcNAc(b1-4)Gal(b1-4)GlcNAc
# Summary of the method: as §1
# GlcNAc(b1-4)GlcNAc = biological target: GlcNAc(b1-4)GlcNAc
# Summary of the method: as §1
# [11] = biological target: GlcNAc(b1-4)GlcNAc(b1-4)GlcNAc
# Summary of the method: as §1
# [12] = biological target: GlcNAc(b1-4)GlcNAc(b1-4)GlcNAc(b1-4)GlcNAc(b1-4)GlcNAc
# Summary of the method: as §1
# [13] = biological target: GlcNAc(b1-4)GlcNAc(b1-4)GlcNAc(b1-4)GlcNAc(b1-4)GlcNAc(b1-4)GlcNAc
# Summary of the method: as §1
# [14] = biological target: GlcNAc(b1-4)[GlcNAc(b1-6)]GalNAc
# Summary of the method: as §1
# [15] = biological target: GlcNAc(b1-6)Gal(b1-4)GlcNAc
# Summary of the method: as §1
# GlcNAc(b1-6)GalNAc = biological target: GlcNAc(b1-6)GalNAc
# Summary of the method: as §1
# [16] = biological target: GlcNAc6S(b1-3)Gal(b1-4)GlcNAc
# Summary of the method: as §1
# Kdn(a2-3)Gal(b1-3)GalNAc = biological target: Kdn(a2-3)Gal(b1-3)GalNAc
# Summary of the method: as §1
# Kdn(a2-3)Gal(b1-3)GlcNAc = biological target: Kdn(a2-3)Gal(b1-3)GlcNAc
# Summary of the method: as §1
# Kdn(a2-3)Gal(b1-4)Glc = biological target: Kdn(a2-3)Gal(b1-4)Glc
# Summary of the method: as §1
# Kdn(a2-3)Gal(b1-4)GlcNAc = biological target: Kdn(a2-3)Gal(b1-4)GlcNAc
# Summary of the method: as §1
# [17] = biological target: Kdn(a2-3)Gal(b1-4)[Fuc(a1-3)]GlcNAc
# Summary of the method: as §1
# Kdn(a2-6)Gal(b1-4)GlcNAc = biological target: Kdn(a2-6)Gal(b1-4)GlcNAc
# Summary of the method: as §1
# [18] = biological target: Man(a1-2)Man(a1-2)Man(a1-3)Man
# Summary of the method: as §1
# [19] = biological target: Man(a1-2)Man(a1-2)Man(a1-6)[Man(a1-3)]Man
# Summary of the method: as §1
# Man(a1-2)Man(a1-3)Man = biological target: Man(a1-2)Man(a1-3)Man
# Summary of the method: as §1
# [20] = biological target: Man(a1-2)Man(a1-3)[Man(a1-2)Man(a1-6)]Man
# Summary of the method: as §1
# [21] = biological target: Man(a1-2)Man(a1-3)[Man(a1-2)Man(a1-6)]Man(a1-6)[Man(a1-2)Man(a1-2)Man(a1-3)]Man
# Summary of the method: as §1
# [22] = biological target: Man(a1-2)Man(a1-3)[Man(a1-2)Man(a1-6)]Man(a1-6)[Man(a1-2)Man(a1-2)Man(a1-3)]Man(b1-4)GlcNAc(b1-4)GlcNAc
# Summary of the method: as §1
# [23] = biological target: Man(a1-2)Man(a1-3)[Man(a1-6)]Man(a1-6)[Man(a1-2)Man(a1-3)]Man(b1-4)GlcNAc(b1-4)GlcNAc
# Summary of the method: as §1
# [24] = biological target: Man(a1-2)Man(a1-6)[Man(a1-3)]Man(a1-6)[Man(a1-2)Man(a1-2)Man(a1-3)]Man
# Summary of the method: as §1
# [25] = biological target: Man(a1-2)Man(a1-6)[Man(a1-3)]Man(a1-6)[Man(a1-2)Man(a1-2)Man(a1-3)]Man(b1-4)GlcNAc(b1-4)GlcNAc
# Summary of the method: as §1
# Man(a1-3)[Man(a1-6)]Man = biological target: Man(a1-3)[Man(a1-6)]Man
# Summary of the method: as §1
# [26] = biological target: Man(a1-3)[Man(a1-6)]Man(a1-6)[Man(a1-2)Man(a1-3)]Man(b1-4)GlcNAc(b1-4)GlcNAc
# Summary of the method: as §1
# [27] = biological target: Man(a1-3)[Man(a1-6)]Man(a1-6)[Man(a1-3)]Man
# Summary of the method: as §1
# [28] = biological target: Man(a1-3)[Man(a1-6)]Man(a1-6)[Man(a1-3)]Man(b1-4)GlcNAc(b1-4)GlcNAc
# Summary of the method: as §1
# [29] = biological target: Man(a1-3)[Man(a1-6)]Man(b1-4)GlcNAc(b1-4)GlcNAc
# Summary of the method: as §1
# [30] = biological target: Man(a1-3)[Man(a1-6)]Man(b1-4)GlcNAc(b1-4)[Fuc(a1-6)]GlcNAc
# Summary of the method: as §1
# Man(a1-6)Man = biological target: Man(a1-6)Man
# Summary of the method: as §1
# Man(b1-4)GlcNAc = biological target: Man(b1-4)GlcNAc
# Summary of the method: as §1
# MurNAc(b1-4)GlcNAc = biological target: MurNAc(b1-4)GlcNAc
# Summary of the method: as §1
# Neu5Ac(a2-3)Gal = biological target: Neu5Ac(a2-3)Gal
# Summary of the method: as §1
binder,measurement,setting,value
B1,glycan array binding signal (z-score),[1],-0.35
same,glycan array binding signal (z-score),[2],-0.088
same,glycan array binding signal (z-score),[3],-0.331
same,glycan array binding signal (z-score),[4],-0.249
same,glycan array binding signal (z-score),[5],-0.316
same,glycan array binding signal (z-score),[6],-0.326
same,glycan array binding signal (z-score),GlcNAc(b1-3)GalNAc,-0.323
same,glycan array binding signal (z-score),GlcNAc(b1-3)Man,-0.38
same,glycan array binding signal (z-score),[7],-0.249
same,glycan array binding signal (z-score),[8],-0.37
same,glycan array binding signal (z-score),[9],-0.355
same,glycan array binding signal (z-score),[10],-0.392
same,glycan array binding signal (z-score),GlcNAc(b1-4)GlcNAc,-0.39
same,glycan array binding signal (z-score),[11],-0.326
same,glycan array binding signal (z-score),[12],-0.365
same,glycan array binding signal (z-score),[13],-0.364
same,glycan array binding signal (z-score),[14],-0.32
same,glycan array binding signal (z-score),[15],0.132
same,glycan array binding signal (z-score),GlcNAc(b1-6)GalNAc,0.055
same,glycan array binding signal (z-score),[16],1.22
same,glycan array binding signal (z-score),Kdn(a2-3)Gal(b1-3)GalNAc,0.603
same,glycan array binding signal (z-score),Kdn(a2-3)Gal(b1-3)GlcNAc,1.96
same,glycan array binding signal (z-score),Kdn(a2-3)Gal(b1-4)Glc,0.899
same,glycan array binding signal (z-score),Kdn(a2-3)Gal(b1-4)GlcNAc,0.259
same,glycan array binding signal (z-score),[17],0
same,glycan array binding signal (z-score),Kdn(a2-6)Gal(b1-4)GlcNAc,-0.238
same,glycan array binding signal (z-score),[18],-0.398
same,glycan array binding signal (z-score),[19],-0.343
same,glycan array binding signal (z-score),Man(a1-2)Man(a1-3)Man,-0.348
same,glycan array binding signal (z-score),[20],-0.381
same,glycan array binding signal (z-score),[21],-0.267
same,glycan array binding signal (z-score),[22],-0.296
same,glycan array binding signal (z-score),[23],-0.372
same,glycan array binding signal (z-score),[24],-0.35
same,glycan array binding signal (z-score),[25],-0.293
same,glycan array binding signal (z-score),Man(a1-3)[Man(a1-6)]Man,-0.357
same,glycan array binding signal (z-score),[26],2
same,glycan array binding signal (z-score),[27],-0.37
same,glycan array binding signal (z-score),[28],-0.052
same,glycan array binding signal (z-score),[29],-0.365
same,glycan array binding signal (z-score),[30],0.048
same,glycan array binding signal (z-score),Man(a1-6)Man,-0.366
same,glycan array binding signal (z-score),Man(b1-4)GlcNAc,-0.38
same,glycan array binding signal (z-score),MurNAc(b1-4)GlcNAc,-0.409
same,glycan array binding signal (z-score),Neu5Ac(a2-3)Gal,-0.341
